From ChEMBL document CHEMBL1201862, “PubChem BioAssay data set” (2004)
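Step 1: Grow cells in 96-well plates. Step 2: Expose to compound for 48 hours at 5 concentrations. Step 3: Interpolate endpoints linearly; if unreached, use highest concentration. The concentration for 50% growth inhibition is given as GI50.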 Active and inactive are the calls of the source. Rule as the data show it: active = GI50 up to about 1.1 µM and inactive = higher.

Test system: NCI-H322M
Assay: NCI anticancer screen, dose series, 48 h

Row | SMILES | GI50
1 | COC(=O)C(=O)C(C(=O)C(=O)Nc1nc2ccc(C)cc2s1)c1nc2ccc([N+](=O)[O-])cc2nc1O (stereo unspecified) | inactive: > 100 µM
2 | O=Cc1ccc(-c2nccc3c2[nH]c2ccccc23)o1 | inactive: > 91.2 µM
3 | Nc1nc(N)c2nc(-c3ccco3)cnc2n1 | inactive: 37.9 µM
4 | O=C(/C=C/c1ccccc1)Oc1cccc(O)c1 | inactive: > 100 µM
5 | O=C(/C=C/c1ccccc1O)c1cccc2ccccc12 | inactive: > 61.7 µM
6 | CC(NC(=O)N(C)C)NC(=O)N(C)C | inactive: > 10 µM
7 | CC(=O)O[C@H]1C(=O)[C@@]2(C)[C@H]([C@H](OC(=O)c3ccco3)[C@]3(O)C[C@H](OC(=O)[C@H](O)[C@@H](NC(=O)c4ccccc4)c4ccccc4)C(C)=C1C3(C)C)[C@]1(OC(C)=O)CO[C@@H]1C[C@@H]2O | active: 0.541 µM
8 | Cc1cccc(NC(=O)/C=C/c2ccccc2)c1C | inactive: > 100 µM
9 | COc1ccccc1N1C(=O)/C(=C\c2cccc(Oc3ccccc3)c2)SC1c1ccccc1 (stereo unspecified) | inactive: 52.5 µM
10 | Fc1ccccc1C1SCc2nc3cc4ccccc4cc3n21 (stereo unspecified) | inactive: 47.3 µM
11 | CCOC(=O)C(=O)Nc1cc(Cl)ccc1Cl | inactive: > 100 µM
12 | CC1(C)OCC(C2OC3OC(C)(C)OC3C2c2ccccc2)O1 (stereo unspecified) | inactive: > 100 µM
13 | Cc1ccc(NC(=S)C#N)cc1Cl | inactive: 38 µM
14 | Cc1ccc(-c2cc(=O)c(=O)[nH][nH]2)cc1 | inactive: > 100 µM
15 | Cn1c2ccccc2c2c3c(c4c5ccccc5n(C)c4c21)C(=O)c1ccccc1C3=O | inactive: 56.1 µM
16 | CCOC(=O)Cc1cc(OC)c(OC)cc1/C(Cl)=C(\C=O)c1ccc(OC)c(OC)c1 | inactive: 13.7 µM
17 | Nc1nc(Cl)cc(NCCCNc2cc(Cl)nc(N)n2)n1 | inactive: > 100 µM
18 | Cc1ccc2c(n1)C(=O)C=CC2=O | inactive: 16 µM
19 | O=C(NNCC(F)(F)F)c1ccncc1 | inactive: > 100 µM
20 | Cc1ccccc1NC(=O)C(=O)CC(=O)c1ccc([N+](=O)[O-])cc1 | inactive: > 100 µM
21 | C=CCCC1(O)C(O)C(CO)O[C@H](O[C@@]2(CO)OC(CO)C(O)C2O)C1O (stereo partly specified) | inactive: > 100 µM
22 | CC(=O)c1c(-c2ccco2)c(C#N)c(=S)n(C2OC(CO)C(O)C(O)C2O)c1-c1ccccc1 (stereo unspecified) | inactive: 96.6 µM
23 | Cc1nc2ccccc2n1Cc1ccc(NC(=S)Nc2ccccc2)cc1 | inactive: > 100 µM

Row | SMILES | GI50
24 | Cc1c(/N=N/c2ccc([N+](=O)[O-])cc2)nc2scc(-c3ccccc3)n12 | inactive: > 100 µM
25 | O=[N+]([O-])c1ccc(C(O)(C#CCN2CCCC2)c2ccccc2)cc1 (stereo unspecified) | inactive: 48.8 µM
26 | C[C@H]1CN[C@@H]2[C@@H](C)[C@H]3[C@@H](C[C@H]4[C@@H]5CC[C@H]6C[C@@H](N)CC[C@]6(C)[C@H]5CC[C@]34C)O[C@@]2(O)C1 | inactive: 2.51 µM
27 | N#CC(=N)c1ncn(CCO)c1NC(=O)C(F)(F)F | inactive: > 100 µM
28 | Cc1cccc(-c2nc3c(C(=O)NCCN(C)C)cccc3[nH]2)c1 | active: 0.984 µM
29 | O=C(CC/C(CC(=O)c1ccc(Cl)cc1)=N/O)Nc1ccc(Cl)c(Cl)c1 | inactive: > 100 µM
30 | C/C(=N\NC(=S)NC(C)(C)C)c1nc2cccnc2[nH]1 | inactive: 3.33 µM
31 | NS(=O)(=O)c1cc2c(cc1Cl)NC(/C(=N/NC(=O)c1ccncc1)C1C(=O)NC(=O)NC1=O)=NS2(=O)=O | inactive: > 100 µM
32 | C=CC(C)(C)n1cc(C2=C(O)C(=O)C(c3cn(C(C)(C)C=C)c4ccccc34)=C(OC(C)=O)C2=O)c2ccccc21 | active: 1.1 µM
33 | CCn1c(C)nc([N+](=O)[O-])c1Sc1ncc[nH]1 | inactive: > 100 µM
34 | COc1ccc2c3c(c(C(=O)O)oc13)C(CCC(=O)O)CC2 (stereo unspecified) | inactive: > 100 µM
35 | COC(=O)c1c(O)ccc2c1c1c(n2Cc2ccc(OC)cc2)C(=O)c2ccccc2C1 | inactive: > 100 µM
36 | COC(=O)c1c2c(c3[nH]c4ccccc4c3c1C(=O)OC)C(=O)C1=C(C2=O)C2(Cl)C(Cl)C(Cl)C1(Cl)C2(Cl)Cl (stereo unspecified) | inactive: 3.67 µM
37 | CC(C)C(C/C=C1/CC(CO)(COC(=O)C2CCCCC2)OC1=O)C(C)C (stereo unspecified) | inactive: 17.3 µM
38 | C=C1C(=O)OC2C3C(=C)[C@@H](OC(C)=O)CC3C(C)=CC(OC(=O)C(C)(OC(C)=O)C(C)OC(C)=O)[C@@H]12 (stereo partly specified) | inactive: 69.5 µM
39 | COC1=CC(=O)[C@]2(C)[C@H](C1=O)C(C)[C@H]2c1ccccc1 (stereo partly specified) | inactive: > 100 µM
40 | O=C(OCc1ccccc1[N+](=O)[O-])N1c2ccccc2[C@@]23O[C@]24CCC[C@H]3C#C/C=C\C#C[C@H]14 | inactive: > 100 µM
41 | CN1C(=O)c2c(c3c4ccccc4n(C4OC(CO)C(O)C(O)C4O)c3c3[nH]c4ccccc4c23)C1=O (stereo unspecified) | inactive: 2.96 µM
42 | Brc1ccc2c(-c3csc(-c4c[nH]c5cc(Br)ccc45)n3)c[nH]c2c1 | inactive: 27.2 µM
43 | O=C1/C(=C/c2ccccc2)CNC/C1=C\c1ccccc1 | inactive: 3.36 µM
44 | COc1cc(C=O)c(-c2cc3c(cc2C=O)OCO3)c(OC)c1OC | inactive: 83.4 µM
45 | CC(=O)N/C=C/c1cc(O)ccc1O | inactive: > 90.2 µM
46 | COc1cc2c(cc1C)NC(=O)/C2=C/c1c(Cl)n(C)c2ccccc12 | inactive: 12.1 µM
